# Reference: PMC4336329 (PLoS ONE, 2015)
# Screen size: about 310,000 compounds; about 2,200 (0.71%) showed an effect of 50% or more. The effect is printed as a negative number. The list shows a part of the results.
# Target: human ether-à-go-go-related gene (hERG) potassium channel (human, UniProt Q12809)
# Experiment: primary screen, population patch clamp on CHO cells stably expressing hERG
# Sequence of human ether-à-go-go-related gene (hERG) potassium channel (Q12809 whole entry, looked up): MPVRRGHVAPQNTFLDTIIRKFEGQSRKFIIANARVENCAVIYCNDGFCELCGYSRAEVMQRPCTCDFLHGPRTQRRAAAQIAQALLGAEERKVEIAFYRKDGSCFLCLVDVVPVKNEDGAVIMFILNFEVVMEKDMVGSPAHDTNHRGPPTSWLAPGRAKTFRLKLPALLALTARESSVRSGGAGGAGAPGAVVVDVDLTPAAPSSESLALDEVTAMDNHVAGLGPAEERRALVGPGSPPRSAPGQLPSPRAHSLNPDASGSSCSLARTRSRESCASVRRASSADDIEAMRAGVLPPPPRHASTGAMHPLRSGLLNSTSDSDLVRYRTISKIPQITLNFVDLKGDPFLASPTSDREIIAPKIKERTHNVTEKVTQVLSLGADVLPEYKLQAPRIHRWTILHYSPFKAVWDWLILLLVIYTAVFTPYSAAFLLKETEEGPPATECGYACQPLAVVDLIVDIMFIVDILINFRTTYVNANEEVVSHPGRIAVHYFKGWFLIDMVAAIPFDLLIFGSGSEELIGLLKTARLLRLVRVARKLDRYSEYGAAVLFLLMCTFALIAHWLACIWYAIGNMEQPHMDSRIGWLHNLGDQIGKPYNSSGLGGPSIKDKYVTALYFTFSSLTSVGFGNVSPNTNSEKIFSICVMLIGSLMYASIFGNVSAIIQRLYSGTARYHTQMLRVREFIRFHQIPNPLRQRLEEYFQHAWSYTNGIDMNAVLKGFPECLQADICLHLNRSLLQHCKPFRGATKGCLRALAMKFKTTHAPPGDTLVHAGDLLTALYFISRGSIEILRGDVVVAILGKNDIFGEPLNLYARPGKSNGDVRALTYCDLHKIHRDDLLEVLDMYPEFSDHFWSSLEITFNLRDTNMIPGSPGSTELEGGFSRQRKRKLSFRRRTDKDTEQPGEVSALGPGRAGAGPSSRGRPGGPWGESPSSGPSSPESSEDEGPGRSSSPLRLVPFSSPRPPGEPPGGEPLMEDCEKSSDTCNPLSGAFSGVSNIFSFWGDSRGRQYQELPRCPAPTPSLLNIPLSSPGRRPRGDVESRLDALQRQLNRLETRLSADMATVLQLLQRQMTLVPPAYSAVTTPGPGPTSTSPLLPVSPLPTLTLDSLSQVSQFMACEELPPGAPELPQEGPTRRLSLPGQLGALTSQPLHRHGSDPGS
row,Structure (SMILES),"hERG current change (%, negative = inhibition) at 1uM [%]"
1,CC(C)(C)OC(=O)N1CCC(CNC(=O)c2ccc(F)cc2F)CC1,1.01
2,Cc1nc2ccc(NC(=O)CSc3nnc(C)s3)cc2[nH]1,9.89
3,O=C(CN1CCCC1)Nc1ccc(OCc2ccccc2)cc1,8
4,CCOC(=O)c1cc(Br)c(=O)n2ccccc12,6.25
5,CC(C)C[C@@H](C(=O)NCc1ccco1)N1C(=O)N2CCc3c([nH]c4ccccc34)[C@@]2(C)C1=O,12.5
6,COc1cc(OC)cc(C(=O)N[C@H](C(=O)Nc2nc(-c3ccc(OC)c(OC)c3)cs2)C(C)C)c1,8.11
7,CCO[C@@H]1OC(C(N)=O)=C[C@H](C2CCCCC2)[C@H]1CCCO,6.3
8,Clc1ccc2c(N/N=C/c3cccc(Br)c3)ccnc2c1,-4.87
9,O=C(c1cc(COc2ccc(F)cc2Cl)on1)N1CCN(c2cnccn2)CC1,-6.87
10,O=C(COC(=O)c1cc([N+](=O)[O-])ccc1N1CCOCC1)c1ccccc1Cl,5.21
11,O=C(COc1ccccc1)Nc1c2c(nn1-c1ccccc1)CS(=O)(=O)C2,-5.47
12,Cc1ccc(N2C(=O)CC(N(O)C3CC(=O)N(c4ccc(C)cc4)C3=O)C2=O)cc1 (stereo not shown),10.2
13,CC1=[N+]([O-])C2(N)CCc3nonc3C2(O)C1 (stereo not shown),6.29
14,CC1CC(C)CN(CCCNC(=O)c2ccc3c(c2)ncn3C2CCCC2)C1 (stereo not shown),2.15
15,CCOC(=O)c1c(C)cc(C)n2c1nc1ccccc12,-10.3
16,O=C(CN(Cc1ccccc1)C(=O)CCC(=O)Nc1ccccn1)NCCc1ccccc1,-25.5
17,Cc1nnc(SCC(=O)N(C)CC(=O)Nc2ccccc2Cl)s1,12.8
18,O=C(/C=C/c1cccc([N+](=O)[O-])c1)NCCSCc1ccc(Cl)cc1Cl,13.1
19,Nc1cccnc1Sc1cccc(Cl)c1,0.956
20,CC(=O)Nc1ccc(S(=O)(=O)N2CCC3(CC2)OCCO3)cc1,9.75
21,Clc1ccc2c(N/N=C/c3ccccc3Br)ccnc2c1,13.5
22,Cc1nnsc1Sc1ccccn1,14.2

row,Structure (SMILES),"hERG current change (%, negative = inhibition) at 1uM [%]"
1,COc1ccc(-n2c(SCC(=O)N3CCCCC3)nc(O)cc2=O)cc1,0.166
2,O=C(c1cccc(NC2=NC3CS(=O)(=O)CC3S2)c1)N1CCN(c2ccc(F)cc2)CC1 (stereo not shown),13.1
3,O.Oc1cc(O)c2c(c1)OC(c1ccc(O)c(O)c1)C(O)C2 (stereo not shown),0.188
4,COC(=O)N1[C@H](C)C=C[C@]1(Cc1ccccc1)C(=O)OC,8.56
5,N#Cc1ccsc1NC(=O)C1CCN(C(=O)c2ccc(F)cc2)CC1,-6.52
6,COc1ccc(C2C(C(C)=O)=C(O)C(=O)N2CCO)c(OC)c1 (stereo not shown),11.3
7,COc1ccccc1NC(=O)c1ccc(NS(=O)(=O)c2ccc(F)c(F)c2F)cc1,-0.621
8,O=C1NC(=O)/C(=C\c2ccc(Sc3ccc(Cl)cc3)o2)N1,10.8
9,Cn1c(-c2ccccc2)cnc1NCc1cc(Cl)ccc1O,16.9
10,CCOC(=O)N1CCN(C(=O)c2ccccc2CCc2ccccc2)CC1,-4.89
11,Cc1cc(NS(=O)(=O)c2ccc(NC(=O)c3oc4ccccc4c3C)cc2)no1,0.431
12,CC(C)CC(NC(=O)c1cccc(Cl)c1)C(=O)O (stereo not shown),17.8
13,O=C(Oc1cccc2cccnc12)c1cccc(N2C(=O)C3C4CCC(C4)C3C2=O)c1 (stereo not shown),3.55
14,Cc1occc1C(=O)NC1CCCCCCC1,11.2
15,Cc1cc(OCC(=O)OC(C)C(=O)Nc2ccc(N3CCOCC3)cc2)ccc1Cl (stereo not shown),2.06
16,CC1=NN(c2ccccc2)C(=O)C1C(=O)c1cc([N+](=O)[O-])cc([N+](=O)[O-])c1 (stereo not shown),7.38
17,Cc1nn(-c2ccccc2)c(Cl)c1/C=N/NC(=O)c1ccncc1,11.9
18,COc1ccc(CNC(=O)C(C)NCc2ccc(S(N)(=O)=O)cc2)cc1 (stereo not shown),0.614
19,COc1cc(S(=O)(=O)N2CCOCC2)cc(C(=O)OCC(=O)NC2CCCCC2)c1OC,13.4
20,CCN(C(=O)CSc1ncnc2c1cnn2-c1ccccc1)C1CCS(=O)(=O)C1 (stereo not shown),9.57
21,COc1ccc(NC(=O)NC(C)C2CC3CCC2C3)cc1 (stereo not shown),9.57
22,CCOC(=O)c1sc(C)c2c1NC(c1ccc(N(C)C)cc1)NC2=O (stereo not shown),1.65

row,Structure (SMILES),"hERG current change (%, negative = inhibition) at 1uM [%]"
1,O=C(c1cc2ccc([N+](=O)[O-])cc2oc1=O)N1CCOCC1,8.35
2,COc1ccc(C2(NC(C)=O)CCN(C(=O)c3cccs3)CC2)cc1,3.22
3,COc1ccc(C(=O)C2CCCN(C(=O)c3noc4c3CCCC4)C2)cc1F (stereo not shown),12.6
4,CNC(=O)C1C2C=CC3(O2)C1C(=O)N(CCOC)C3C(=O)NCc1ccc(OC)cc1 (stereo not shown),18.3
5,O=C(Oc1cccc2cccnc12)c1ccc(N2C(=O)C3C4CCC(C4)C3C2=O)cc1 (stereo not shown),6.86
6,COc1ccc(S(=O)(=O)N(C)CC(=O)N2CCOCC2)cc1,-2.22
7,COc1cccc(CC2(CO)CCCN(Cc3ccc(-c4ccco4)cc3)C2)c1 (stereo not shown),9.67
8,O=c1[nH]c2ccccc2nc1CCc1ccccc1,5.69
9,CCCOc1cccc(-c2cc(C(=O)N/N=C/c3ccccn3)c3ccccc3n2)c1,5.05
10,CCOc1ccc(CN2CCN(C(=O)c3cccc4ccccc34)CC2)cc1.O=C(O)C(=O)O,-3.13
11,COC(=O)COc1ccc(S(=O)(=O)Nc2ccc(NC(C)=O)cc2)cc1C,13.8
12,COc1ccc(S(=O)(=O)NCCC(=O)NCc2ccc(F)cc2)cc1,-8.18
13,Cc1cccc(-n2c(C)n[nH]c2=S)c1C,11.1
14,Cc1ccc(-c2nnn(CC(=O)N(CC(=O)NC3CCCC3)c3ccc(F)c(Cl)c3)n2)o1,2.99
15,COc1ccc(CN2CCCC(C(=O)N3CCCCC3)C2)cc1OC.O=C(O)C(=O)O (stereo not shown),2.85
16,O=C(Nc1ccc(Br)cc1)c1cnccn1,7.97
17,CCN(Cc1ccccc1)S(=O)(=O)c1ccc(C(=O)N(CCCN(C)C)c2nc3cc(OC)ccc3s2)cc1.Cl,-4.97
18,COC(=O)CCCc1nc2ccccc2s1,9.62
19,CCCCn1nc(C(=O)N(CCOC)c2c(N)n(CCCC)c(=O)[nH]c2=O)c2ccccc2c1=O,9.75
20,Cl.Nc1ncnc2sc3c(c12)CCNC3,15.9
21,Cc1ccc2oc(=O)cc(CN3CCN(C/C=C/c4ccccc4)CC3)c2c1,-53.7
22,CCOC(=O)C1CCN(C(=O)CNS(=O)(=O)c2ccc(Br)s2)CC1,1.86

row,Structure (SMILES),"hERG current change (%, negative = inhibition) at 1uM [%]"
1,COC(=O)c1[nH]c2ccccc2c1NC(=O)c1ccccc1F,12.7
2,O=C(CSC(=S)N1CCOCC1)Nc1ncc2c(n1)CCCC2=O,0.148
3,NC(=O)COC(=O)c1ccc(-c2ccccc2)cc1,6.68
4,C=CCn1c(SCC(=O)Nc2ccc3c(c2)OCCO3)nc2cc(C(=O)O)ccc2c1=O,4.69
5,O=C(c1cccs1)N(Cc1ccccn1)Cc1ccco1,-1.52
6,CC(Sc1nnc(-c2cccnc2)n1C)C(=O)N1CCOCC1 (stereo not shown),1.36
7,COc1ccc(OC)c(NC(=O)Cn2c(CCC(=O)O)ccc2-c2ccc(C)cc2)c1,7.11
8,CCCN1CCN(C(=O)c2cccc3c2C(=O)N(CCOC)C3)CC1,13.6
9,CC(C)c1ccc(S(=O)(=O)N(C)C2(C)CCS(=O)(=O)C2)cc1 (stereo not shown),-22.5
10,C=CCNC(=S)NNC(=O)c1ccc(OCCCC)cc1,10.8
11,Nn1c(-c2ccccc2Cl)nnc1-c1ccccc1Cl,8.03
12,O=C(CCC(=O)N1CCOc2ccccc21)Nc1ccccc1Cl,10.9
13,COc1ccc(-n2c(C)cc(/C=C3\C(=N)N4N=C(CC(=O)N5CCOCC5)SC4=NC3=O)c2C)c(OC)c1,15.2
14,CCOC(=O)c1c(C)n(C)c2ccc(OC)c(NC(=O)CCN3CCSCC3)c12,1.26
15,O=S(=O)(Nc1cccc(-n2cnnn2)c1)c1ccccc1,16.8
16,O=C(CCNc1ccc(F)cc1)c1cccc([N+](=O)[O-])c1,-1.05
17,COc1ccccc1CC(=O)O/N=C(\N)Cc1cccc2ccccc12,14.2
18,N#CCCN1CCN(CCC#N)CC1,9.6
19,COC(=O)C1=C(C)N=C2SC(C#N)=C(N)N2C1c1cc(OC)c(OC)c(OC)c1 (stereo not shown),-1.44
20,O=C1CCCCN1CC(=O)N1CCCC(Nc2ccc(F)cc2)C1 (stereo not shown),12.3
21,O=C(Nc1ccc(Cl)cc1Cl)NC1CCN(S(=O)(=O)c2ccc(F)cc2)CC1,10.3
22,COc1cc(C(=O)NCc2ccc(S(N)(=O)=O)cc2)ccc1OCC(=O)N1CCOCC1,12.1
